# Test results as given in the supplement of paper PMC8728848.
# Some of the results follow.
# B1: Gal 8 (Mus musculus), Q9JL15 (protein)
# chain: MGGSHHHHHHGMASMLSLNNLQNIIYNPIIPYVGTITEQLKPGSLIVIRGHVPKDSERFQVDFQLGNSLKPRADVAFHFNPHFKRSSCIVCNTLTQEKWGWEEITYDMPFRKEKSFEIVFMVLKNKFQVAVNGRHVLLYAHRISPEQIDTVGIYGKVNIHSIGFRFSSASALPHTLGDLQSMETSALGLTQINRENIQKPGKLQLSLPFEARLNASMGPGRTVVIKGEVNTNARSFNVDLVAGKTRDIALHLNPHLNVKAFVRNSFLQDAWGEEERNITCFPFSSGMYFEMIIYCDVREFKVAINGVHSLEYKHRFKDLSSIDTLSVDGDIRLLDVRSW
# What was measured:
# Experiment in all cases: glycan array binding signal (z-score within array); higher = stronger binding
# Conditions in all cases: glycan notation: IUPAC condensed, linker removed; mutation: R82H, R255H
# [1] = target: Gal(b1-4)GlcNAc(b1-3)Gal(b1-4)GlcNAc(b1-3)[Gal(b1-4)GlcNAc(b1-3)Gal(b1-4)GlcNAc(b1-6)]GalNAc
# How it was run: (§1)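 Negative Z-scores can be read as non-binding. The Z-score is calculated within each array and then averaged across arrays of one protein sequence at different concentrations or buffers and across linkers. Arrays, 3228 in all, were curated from the Consortium for Functional Glycomics database and kept only where the protein sequence was available.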
# [2] = target: Gal(b1-4)GlcNAc(b1-3)Gal(b1-4)GlcNAc(b1-6)[Gal(b1-3)]GalNAc
# How it was run: as §1
# [3] = target: Gal(b1-4)GlcNAc(b1-3)Gal(b1-4)[Fuc(a1-3)]GlcNAc(b1-3)Gal(b1-4)[Fuc(a1-3)]GlcNAc
# How it was run: as §1
# [4] = target: Gal(b1-4)GlcNAc(b1-3)GalNAc
# How it was run: as §1
# [5] = target: Gal(b1-4)GlcNAc(b1-3)[Fuc(a1-3)GlcNAc(b1-6)]Gal(b1-4)Glc
# How it was run: as §1
# [6] = target: Gal(b1-4)GlcNAc(b1-3)[Gal(b1-4)GlcNAc(b1-6)]Gal(b1-4)GlcNAc
# How it was run: as §1
# [7] = target: Gal(b1-4)GlcNAc(b1-3)[GlcNAc(b1-6)]Gal(b1-4)GlcNAc
# How it was run: as §1
# [8] = target: Gal(b1-4)GlcNAc(b1-6)Gal(b1-4)GlcNAc
# How it was run: as §1
# [9] = target: Gal(b1-4)GlcNAc(b1-6)GalNAc
# How it was run: as §1
# [10] = target: Gal(b1-4)GlcNAc(b1-6)[Gal(b1-3)]GalNAc
# How it was run: as §1
# [11] = target: Gal(b1-4)GlcNAc(b1-6)[Gal(b1-4)GlcNAc(b1-3)]GalNAc
# How it was run: as §1
# Gal(b1-4)GlcNAc6P = target: Gal(b1-4)GlcNAc6P
# How it was run: as §1
# Gal(b1-6)Gal = target: Gal(b1-6)Gal
# How it was run: as §1
# Gal3S(b1-3)GalNAc = target: Gal3S(b1-3)GalNAc
# How it was run: as §1
# Gal3S(b1-3)GlcNAc = target: Gal3S(b1-3)GlcNAc
# How it was run: as §1
# [12] = target: Gal3S(b1-3)[Fuc(a1-4)]GlcNAc
# How it was run: as §1
# Gal3S(b1-4)Glc = target: Gal3S(b1-4)Glc
# How it was run: as §1
# Gal3S(b1-4)Glc6S = target: Gal3S(b1-4)Glc6S
# How it was run: as §1
# Gal3S(b1-4)GlcNAc = target: Gal3S(b1-4)GlcNAc
# How it was run: as §1
# [13] = target: Gal3S(b1-4)[Fuc(a1-3)]Glc6S
# How it was run: as §1
# [14] = target: Gal3S(b1-4)[Fuc(a1-3)]GlcNAc
# How it was run: as §1
# [15] = target: Gal3S(b1-4)[Fuc(a1-3)]GlcNAc6S
# How it was run: as §1
# Gal3S4S(b1-4)GlcNAc = target: Gal3S4S(b1-4)GlcNAc
# How it was run: as §1
# Gal3S6S(b1-4)GlcNAc = target: Gal3S6S(b1-4)GlcNAc
# How it was run: as §1
# Gal3S6S(b1-4)GlcNAc6S = target: Gal3S6S(b1-4)GlcNAc6S
# How it was run: as §1
# Gal4S(b1-4)GlcNAc = target: Gal4S(b1-4)GlcNAc
# How it was run: as §1
# Gal4S6S(b1-4)GlcNAc = target: Gal4S6S(b1-4)GlcNAc
# How it was run: as §1
# Gal6P(b1-4)GlcNAc = target: Gal6P(b1-4)GlcNAc
# How it was run: as §1
# Gal6S(b1-3)GlcNAc = target: Gal6S(b1-3)GlcNAc
# How it was run: as §1
# Gal6S(b1-3)GlcNAc6S = target: Gal6S(b1-3)GlcNAc6S
# How it was run: as §1
# Gal6S(b1-4)Glc = target: Gal6S(b1-4)Glc
# How it was run: as §1
# Gal6S(b1-4)Glc6S = target: Gal6S(b1-4)Glc6S
# How it was run: as §1
# Gal6S(b1-4)GlcNAc = target: Gal6S(b1-4)GlcNAc
# How it was run: as §1
# Gal6S(b1-4)GlcNAc6S = target: Gal6S(b1-4)GlcNAc6S
# How it was run: as §1
# GalNAc(a1-3)Gal = target: GalNAc(a1-3)Gal
# How it was run: as §1
# GalNAc(a1-3)GalNAc = target: GalNAc(a1-3)GalNAc
# How it was run: as §1
# [16] = target: GalNAc(a1-3)GalNAc(b1-3)Gal(a1-4)Gal(b1-4)Glc
# How it was run: as §1
binder,measurement,setting,value
B1,glycan array binding signal (z-score),[1],0.053
same,glycan array binding signal (z-score),[2],0.025
same,glycan array binding signal (z-score),[3],-0.243
same,glycan array binding signal (z-score),[4],-0.257
same,glycan array binding signal (z-score),[5],-0.269
same,glycan array binding signal (z-score),[6],-0.272
same,glycan array binding signal (z-score),[7],-0.268
same,glycan array binding signal (z-score),[8],-0.282
same,glycan array binding signal (z-score),[9],-0.208
same,glycan array binding signal (z-score),[10],-0.08
same,glycan array binding signal (z-score),[11],-0.226
same,glycan array binding signal (z-score),Gal(b1-4)GlcNAc6P,-0.215
same,glycan array binding signal (z-score),Gal(b1-6)Gal,-0.233
same,glycan array binding signal (z-score),Gal3S(b1-3)GalNAc,-0.251
same,glycan array binding signal (z-score),Gal3S(b1-3)GlcNAc,-0.133
same,glycan array binding signal (z-score),[12],0.815
same,glycan array binding signal (z-score),Gal3S(b1-4)Glc,-0.116
same,glycan array binding signal (z-score),Gal3S(b1-4)Glc6S,0.008
same,glycan array binding signal (z-score),Gal3S(b1-4)GlcNAc,-0.22
same,glycan array binding signal (z-score),[13],-0.177
same,glycan array binding signal (z-score),[14],-0.249
same,glycan array binding signal (z-score),[15],-0.04
same,glycan array binding signal (z-score),Gal3S4S(b1-4)GlcNAc,-0.219
same,glycan array binding signal (z-score),Gal3S6S(b1-4)GlcNAc,1.47
same,glycan array binding signal (z-score),Gal3S6S(b1-4)GlcNAc6S,-0.092
same,glycan array binding signal (z-score),Gal4S(b1-4)GlcNAc,-0.22
same,glycan array binding signal (z-score),Gal4S6S(b1-4)GlcNAc,-0.205
same,glycan array binding signal (z-score),Gal6P(b1-4)GlcNAc,-0.285
same,glycan array binding signal (z-score),Gal6S(b1-3)GlcNAc,-0.276
same,glycan array binding signal (z-score),Gal6S(b1-3)GlcNAc6S,-0.186
same,glycan array binding signal (z-score),Gal6S(b1-4)Glc,-0.236
same,glycan array binding signal (z-score),Gal6S(b1-4)Glc6S,-0.193
same,glycan array binding signal (z-score),Gal6S(b1-4)GlcNAc,-0.26
same,glycan array binding signal (z-score),Gal6S(b1-4)GlcNAc6S,-0.225
same,glycan array binding signal (z-score),GalNAc(a1-3)Gal,-0.251
same,glycan array binding signal (z-score),GalNAc(a1-3)GalNAc,-0.215
same,glycan array binding signal (z-score),[16],-0.214
